Source: US5488035A (priority 1991, dated 1996)

Assays:
[1] = tested on: Aspergillus flavus, isolate 1 (AFL 001); assay: Antifungal activity score, decreasing concentrations; type: cell-based; conditions: 100 μg/ml
Protocol: (§1) The tachyplesin was used at a concentration of 100 μg/ml as determined by absorption spectrum was screened against four common plant pathogens in both crude and oxidized forms. Antifungal activity was scored on a scale of 0 to 4, with 0 being no inhibition observed relative to a water control, and 4 being complete inhibition. Two reps were done for each treatment. Results were as follows:
(§2) Decreasing tested concentrations of tachyplesin were against the preceding four organisms plus Fusarium moniliforme and Sclerotinia sclerotiorum to determine the minimum inhibitory concentration, and this was compared with other antimicrobial compounds.

[2] = tested on: Fusarium graminearum, isolate 8 (FGR 008); conditions: Example 1; 100 μg/ml; scale 0 (no inhibition relative to water control) to 4 (complete inhibition)
Protocol: as §1, §2

| Substance | Score (antifungal activity), Aspergillus flavus, isolate 1 [1] | Score (antifungal activity), Fusarium graminearum, isolate 8 [2] |
| --- | --- | --- |
| tachyplesin [tachyplesin crude] | 3.5 | 4.0 |
| tachyplesin [tachyplesin oxidized] | 3.5 | 4.0 |
